# Tests used:
# [1] = tested on: cabbage Alternaria sooty spot fungi (Alternaia brassicicola); assay: Test Example C: cabbage Alternaria sooty spot, spray treatment of cabbage plants; type: in vivo; conditions: for Test C control value class (cabbage Alternaria sooty spot): control value=100{1-(n/3)}; for Test C control value: cabbage Alternaria sooty spot
# Excerpt: [Test Example C] Cabbage Alternaria Sooty Spot
# Test plants (cabbage variety: Shikidori) were cultivated until the cotyledons extended after the sowing of seeds.
# <Control Value> Control value=100{1−(n/3)}
# [2] = tested on: wheat brown rust fungi (Puccinia recondita); assay: Test Example E: wheat brown rust, spray treatment of wheat plants; type: in vivo; conditions: for Test E control value class (wheat brown rust): control value=100{1-(n/3)}; for Test E control value: wheat brown rust
# [3] = tested on: gray mold fungi (Botrytis cinerea); assay: Test Example B: tomato gray mold, spray treatment of tomato plants; conditions: for Test B control value class (tomato gray mold): control value=100{1-(n/3)}; for Test B control value: tomato gray mold
# [4] = tested on: grape downy mildew fungus (Plasmopara viticola); assay: Test Example G: grape downy mildew, spray treatment of grape plants; conditions: for Test G control value class (grape downy mildew): 2.5 ml/pot, grape Neomuscat, 7 to 10 days from inoculation; for Test G control value: grape downy mildew, 7 to 10 days after inoculation
# [5] = tested on: barley powdery mildew fungi (Blumeria graminis f. sp. hordei); assay: Test Example D: barley powdery mildew, spray treatment of barley plants; conditions: for Test D control value class (barley powdery mildew): control value=100{1-(n/3)}; for Test D control value: barley powdery mildew
# [6] = spray treatment of cabbage plants
# [7] = spray treatment of wheat plants
# [8] = spray treatment of tomato plants
# [9] = spray treatment of barley plants
SMILES,Test C control value ([1]; spray treatment),Test E control value ([2]; spray treatment),Test B control value ([3]; spray treatment),Test G control value ([4]; 250 ppm spray),Test D control value ([5]; spray treatment),"Test C control value [1, 6]","Test E control value [2, 7]","Test B control value [3, 8]",Test G control value ([4]; 250 ppm spray (2.5 ml/pot)),"Test D control value [5, 9]",further results
Cc1cccc(-n2cc(Br)c(=O)c(Cl)c2-c2c(F)cc(F)cc2F)c1C [Compound 163],–,–,–,–,–,–,–,–,–,–,"Test C control value class (cabbage Alternaria sooty spot) [1, 6]: H (H shows the control value of more than 50%); Test E control value class (wheat brown rust) [2, 7]: H (H shows the control value of more than 50%); Test B control value class (tomato gray mold) [3, 8]: H (H shows the control value of more than 50%); Test G control value class (grape downy mildew) ([4]; 250 ppm spray): H (H shows the control value of more than 50%); Test D control value class (barley powdery mildew) [5, 9]: H (H shows the control value of more than 50%)"
Cc1ccc(C)c(-n2cc(C)c(=O)c(C)c2-c2ccccc2)c1 [Compound 404],L (L shows the control value of 50% or less),H (H shows the control value of more than 50%),H (H shows the control value of more than 50%),H (H shows the control value of more than 50%),L (L shows the control value of 50% or less),–,–,–,–,–,–
O=c1c(Cl)cn(-c2ccccc2C(F)(F)F)c(-c2c(F)cc(F)cc2F)c1Cl [Compound 199],–,–,–,–,–,H (H shows the control value of more than 50%),H (H shows the control value of more than 50%),H (H shows the control value of more than 50%),L (L shows the control value of 50% or less),L (L shows the control value of 50% or less),–
Cc1ccccc1-n1cc(C)c(=O)c(C)c1-c1ccncc1 [Compound 271],–,–,–,–,–,L (L shows the control value of 50% or less),L (L shows the control value of 50% or less),L (L shows the control value of 50% or less),L (L shows the control value of 50% or less),L (L shows the control value of 50% or less),–
Cc1ccc(-n2cc(Cl)c(=O)c(Cl)c2-c2c(F)cc(F)cc2F)c(C)c1 [Compound 259],–,–,–,–,–,H (H shows the control value of more than 50%),H (H shows the control value of more than 50%),H (H shows the control value of more than 50%),L (L shows the control value of 50% or less),L (L shows the control value of 50% or less),–
CCOc1ccc(C)c(-n2cc(Br)c(=O)c(Cl)c2-c2c(F)cccc2F)c1 [Compound 433],H (H shows the control value of more than 50%),H (H shows the control value of more than 50%),H (H shows the control value of more than 50%),L (L shows the control value of 50% or less),L (L shows the control value of 50% or less),–,–,–,–,–,–
CCc1c(-c2ccccc2)n(-c2ccccc2C)cc(Br)c1=O [Compound 475],H (H shows the control value of more than 50%),H (H shows the control value of more than 50%),H (H shows the control value of more than 50%),L (L shows the control value of 50% or less),L (L shows the control value of 50% or less),–,–,–,–,–,–
CC(C)CCn1cc(Cl)c(=O)c(Cl)c1-c1c(F)cc(F)cc1F [Compound 200],–,–,–,–,–,H (H shows the control value of more than 50%),L (L shows the control value of 50% or less),L (L shows the control value of 50% or less),L (L shows the control value of 50% or less),L (L shows the control value of 50% or less),–
COc1cc(F)c(-c2c(Br)c(=O)c(Cl)cn2Cc2ccccc2)c(F)c1 [Compound 59],–,–,–,–,–,–,–,–,–,–,"Test C control value class (cabbage Alternaria sooty spot) [1, 6]: H (H shows the control value of more than 50%); Test E control value class (wheat brown rust) [2, 7]: H (H shows the control value of more than 50%); Test B control value class (tomato gray mold) [3, 8]: H (H shows the control value of more than 50%); Test G control value class (grape downy mildew) ([4]; 250 ppm spray): H (H shows the control value of more than 50%); Test D control value class (barley powdery mildew) [5, 9]: L (L shows the control value of 50% or less)"
"COc1ccc(C)c(-n2cc(Br)c(=O)c(Cl)c2-c2c(F)cc(F)cc2F)c1 [Compound 217, 5-bromo-3-chloro-1-(5-methoxy-2-methylphenyl)-2-(2,4,6-trifluorophenyl)pyridin-4(1H)-one]",–,–,–,–,–,H (H shows the control value of more than 50%),H (H shows the control value of more than 50%),H (H shows the control value of more than 50%),H (H shows the control value of more than 50%),H (H shows the control value of more than 50%),–
CC(C)CCn1cc(Br)c(=O)c(Br)c1-c1c(F)cc(F)cc1F [Compound 203],–,–,–,–,–,H (H shows the control value of more than 50%),L (L shows the control value of 50% or less),H (H shows the control value of more than 50%),L (L shows the control value of 50% or less),L (L shows the control value of 50% or less),–
Cc1ccc(C)c(-n2cc(C)c(=O)c(C)c2-c2c(F)cc(O)cc2F)c1 [Compound 403],H (H shows the control value of more than 50%),H (H shows the control value of more than 50%),H (H shows the control value of more than 50%),L (L shows the control value of 50% or less),L (L shows the control value of 50% or less),–,–,–,–,–,–
Cc1c(Br)cccc1-n1cc(C)c(=O)c(C)c1-c1c(F)cc(F)cc1F [Compound 480],H (H shows the control value of more than 50%),H (H shows the control value of more than 50%),H (H shows the control value of more than 50%),H (H shows the control value of more than 50%),H (H shows the control value of more than 50%),–,–,–,–,–,–
Cc1ccccc1-n1cc(Br)c(=O)c(Cl)c1-c1ccc(C#N)cc1 [Compound 237],–,–,–,–,–,L (L shows the control value of 50% or less),L (L shows the control value of 50% or less),L (L shows the control value of 50% or less),L (L shows the control value of 50% or less),L (L shows the control value of 50% or less),–
CCOc1cc(F)c(-c2c(C)c(=O)c(C)cn2-c2ccccc2C)c(F)c1 [Compound 176],–,–,–,–,–,–,–,–,–,–,"Test C control value class (cabbage Alternaria sooty spot) [1, 6]: H (H shows the control value of more than 50%); Test E control value class (wheat brown rust) [2, 7]: H (H shows the control value of more than 50%); Test B control value class (tomato gray mold) [3, 8]: H (H shows the control value of more than 50%); Test G control value class (grape downy mildew) ([4]; 250 ppm spray): H (H shows the control value of more than 50%); Test D control value class (barley powdery mildew) [5, 9]: H (H shows the control value of more than 50%)"
Cc1c(F)cccc1-n1cc(Cl)c(=O)c(Br)c1-c1c(F)cc(F)cc1F [Compound 189],–,–,–,–,–,H (H shows the control value of more than 50%),H (H shows the control value of more than 50%),H (H shows the control value of more than 50%),L (L shows the control value of 50% or less),H (H shows the control value of more than 50%),–
COc1ccccc1-n1cc(Br)c(=O)c(Cl)c1-c1c(F)cc(F)cc1F [Compound 81],–,–,–,–,–,–,–,–,–,–,"Test C control value class (cabbage Alternaria sooty spot) [1, 6]: H (H shows the control value of more than 50%); Test E control value class (wheat brown rust) [2, 7]: H (H shows the control value of more than 50%); Test B control value class (tomato gray mold) [3, 8]: H (H shows the control value of more than 50%); Test G control value class (grape downy mildew) ([4]; 250 ppm spray): L (L shows the control value of 50% or less); Test D control value class (barley powdery mildew) [5, 9]: H (H shows the control value of more than 50%)"
CCc1c(-c2ccccc2)n(-c2cc(F)ccc2C)cc(C)c1=O [Compound 573],H (H shows the control value of more than 50%),H (H shows the control value of more than 50%),H (H shows the control value of more than 50%),L (L shows the control value of 50% or less),H (H shows the control value of more than 50%),–,–,–,–,–,–
CCc1c(-c2c(F)cc(F)cc2F)n(-c2cc(Cl)ccc2C)cc(Br)c1=O [Compound 556],H (H shows the control value of more than 50%),H (H shows the control value of more than 50%),H (H shows the control value of more than 50%),L (L shows the control value of 50% or less),H (H shows the control value of more than 50%),–,–,–,–,–,–
Cc1cccc(C)c1-n1cc(Br)c(=O)c(Cl)c1-c1ccc(F)cc1 [Compound 342],–,–,–,–,–,H (H shows the control value of more than 50%),L (L shows the control value of 50% or less),L (L shows the control value of 50% or less),L (L shows the control value of 50% or less),L (L shows the control value of 50% or less),–

# — patent publication US11000038B2, “Pyridone compounds and agricultural and horticultural fungicides containing the same as active ingredients” (priority 2017, dated 2021)
